# Some of the results follow.
# B1: BTL (Bryothamnion triquetrum) (protein)
# chain: ADPICGSSGYSCTTPAILTPKSPGSFPSGYSKVIVTGVGGSYSVYIHRPDGFKVYKASEGGCASFGSYSGGGNSEVGKYGSGGTVVAVACK
# Experiments:
# Assay in all cases: glycan array binding signal (z-score within array); higher = stronger binding
# Settings in all cases: glycan notation: IUPAC condensed, linker removed
# [1] = biological target: GalNAc(b1-4)GlcNAc
# How it was run: (§1)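 The binding signal is a Z-score computed within each array. Data were drawn from 3228 arrays in the Consortium for Functional Glycomics database, restricted to those with a known protein sequence. Scores were averaged over arrays of the same protein sequence at different concentrations or buffers, and over linkers, and negative values can be taken as non-binding.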
# [2] = biological target: GalNAc(b1-4)GlcNAc(b1-2)Man
# How it was run: as §1
# [3] = biological target: GalNAc(b1-4)GlcNAc(b1-2)Man(a1-3)[GalNAc(b1-4)GlcNAc(b1-2)Man(a1-6)]Man(b1-4)GlcNAc(b1-4)GlcNAc
# How it was run: as §1
# [4] = biological target: GalNAc(b1-4)GlcNAc(b1-3)GalNAc(b1-4)GlcNAc
# How it was run: as §1
# [5] = biological target: GalNAc(b1-4)GlcNAc6S
# How it was run: as §1
# [6] = biological target: GalNAc(b1-6)GalNAc
# How it was run: as §1
# [7] = biological target: GalNAc3S(b1-4)GlcNAc
# How it was run: as §1
# [8] = biological target: GalNAc3S(b1-4)GlcNAc3S
# How it was run: as §1
# [9] = biological target: GalNAc3S(b1-4)[Fuc(a1-3)]GlcNAc
# How it was run: as §1
# [10] = biological target: GalNAc4S6S(b1-4)GlcNAc
# How it was run: as §1
# [11] = biological target: GalNAc6S(b1-4)GlcNAc
# How it was run: as §1
# [12] = biological target: Glc(a1-4)Glc
# How it was run: as §1
# [13] = biological target: Glc(a1-4)Glc(a1-4)Glc(a1-4)Glc
# How it was run: as §1
# [14] = biological target: Glc(a1-6)Glc(a1-6)Glc
# How it was run: as §1
# [15] = biological target: Glc(a1-6)Glc(a1-6)Glc(a1-6)Glc
# How it was run: as §1
# [16] = biological target: Glc(b1-4)Glc
# How it was run: as §1
# [17] = biological target: Glc(b1-6)Glc
# How it was run: as §1
# [18] = biological target: GlcA(b1-3)Gal
# How it was run: as §1
# [19] = biological target: GlcA(b1-3)GlcNAc
# How it was run: as §1
# [20] = biological target: GlcA(b1-6)Gal
# How it was run: as §1
# [21] = biological target: GlcA3S(b1-3)Gal(b1-4)GlcNAc(b1-2)Man
# How it was run: as §1
# [22] = biological target: GlcA3S(b1-3)Gal(b1-4)GlcNAc(b1-3)Gal(b1-4)Glc
# How it was run: as §1
# [23] = biological target: GlcNAc(a1-3)Gal(b1-4)GlcNAc
# How it was run: as §1
# [24] = biological target: GlcNAc(a1-4)Gal(b1-3)GlcNAc
# How it was run: as §1
# [25] = biological target: GlcNAc(a1-4)Gal(b1-4)GalNAc
# How it was run: as §1
# [26] = biological target: GlcNAc(a1-4)Gal(b1-4)GlcNAc
# How it was run: as §1
# [27] = biological target: GlcNAc(a1-4)Gal(b1-4)GlcNAc(b1-3)Gal(b1-4)Glc
# How it was run: as §1
# [28] = biological target: GlcNAc(a1-4)Gal(b1-4)GlcNAc(b1-3)Gal(b1-4)GlcNAc
# How it was run: as §1
# [29] = biological target: GlcNAc(a1-4)Gal(b1-4)GlcNAc(b1-3)Gal(b1-4)GlcNAc(b1-3)Gal(b1-4)GlcNAc
# How it was run: as §1
# [30] = biological target: GlcNAc(a1-4)Gal(b1-4)GlcNAc(b1-3)Gal(b1-4)[Fuc(a1-3)]GlcNAc(b1-3)Gal(b1-4)[Fuc(a1-3)]GlcNAc
# How it was run: as §1
# [31] = biological target: GlcNAc(a1-6)Gal(b1-4)GlcNAc
# How it was run: as §1
# [32] = biological target: GlcNAc(b1-2)Gal(b1-3)GalNAc
# How it was run: as §1
# [33] = biological target: GlcNAc(b1-2)Man(a1-3)[GlcNAc(b1-2)Man(a1-6)]Man(b1-4)GlcNAc(b1-4)GlcNAc
# How it was run: as §1
# [34] = biological target: GlcNAc(b1-2)Man(a1-3)[GlcNAc(b1-2)Man(a1-6)]Man(b1-4)GlcNAc(b1-4)[Fuc(a1-6)]GlcNAc
# How it was run: as §1
# [35] = biological target: GlcNAc(b1-2)Man(a1-3)[GlcNAc(b1-4)][GlcNAc(b1-2)Man(a1-6)]Man(b1-4)GlcNAc(b1-4)GlcNAc
# How it was run: as §1
# [36] = biological target: GlcNAc(b1-2)Man(a1-3)[GlcNAc(b1-4)][GlcNAc(b1-2)Man(a1-6)]Man(b1-4)GlcNAc(b1-4)[Fuc(a1-6)]GlcNAc
# How it was run: as §1
# [37] = biological target: GlcNAc(b1-2)[GlcNAc(b1-4)]Man(a1-3)[GlcNAc(b1-2)Man(a1-6)]Man(b1-4)GlcNAc(b1-4)GlcNAc
# How it was run: as §1
# [38] = biological target: GlcNAc(b1-2)[GlcNAc(b1-4)]Man(a1-3)[GlcNAc(b1-4)][GlcNAc(b1-2)Man(a1-6)]Man(b1-4)GlcNAc(b1-4)GlcNAc
# How it was run: as §1
# [39] = biological target: GlcNAc(b1-2)[GlcNAc(b1-4)]Man(a1-3)[GlcNAc(b1-4)][GlcNAc(b1-2)[GlcNAc(b1-6)]Man(a1-6)]Man(b1-4)GlcNAc(b1-4)GlcNAc
# How it was run: as §1
# [40] = biological target: GlcNAc(b1-2)[GlcNAc(b1-4)]Man(a1-3)[GlcNAc(b1-4)][GlcNAc(b1-2)[GlcNAc(b1-6)]Man(a1-6)]Man(b1-4)GlcNAc(b1-4)[Fuc(a1-6)]GlcNAc
# How it was run: as §1
# [41] = biological target: GlcNAc(b1-2)[GlcNAc(b1-6)]Man(a1-6)[GlcNAc(b1-2)Man(a1-3)]Man(b1-4)GlcNAc(b1-4)GlcNAc
# How it was run: as §1
# [42] = biological target: GlcNAc(b1-2)[GlcNAc(b1-6)]Man(a1-6)[GlcNAc(b1-2)Man(a1-3)]Man(b1-4)GlcNAc(b1-4)[Fuc(a1-6)]GlcNAc
# How it was run: as §1
# [43] = biological target: GlcNAc(b1-2)[GlcNAc(b1-6)]Man(a1-6)[GlcNAc(b1-4)][GlcNAc(b1-2)Man(a1-3)]Man(b1-4)GlcNAc(b1-4)GlcNAc
# How it was run: as §1
# [44] = biological target: GlcNAc(b1-3)Fuc
# How it was run: as §1
# [45] = biological target: GlcNAc(b1-3)Gal
# How it was run: as §1
binder,measurement,setting,value
B1,glycan array binding signal (z-score),[1],-0.193
same,glycan array binding signal (z-score),[2],-0.248
same,glycan array binding signal (z-score),[3],-0.188
same,glycan array binding signal (z-score),[4],-0.255
same,glycan array binding signal (z-score),[5],-0.172
same,glycan array binding signal (z-score),[6],-0.312
same,glycan array binding signal (z-score),[7],-0.119
same,glycan array binding signal (z-score),[8],-0.207
same,glycan array binding signal (z-score),[9],-0.204
same,glycan array binding signal (z-score),[10],-0.129
same,glycan array binding signal (z-score),[11],-0.282
same,glycan array binding signal (z-score),[12],-0.235
same,glycan array binding signal (z-score),[13],-0.182
same,glycan array binding signal (z-score),[14],-0.253
same,glycan array binding signal (z-score),[15],-0.228
same,glycan array binding signal (z-score),[16],-0.303
same,glycan array binding signal (z-score),[17],-0.263
same,glycan array binding signal (z-score),[18],-0.274
same,glycan array binding signal (z-score),[19],-0.195
same,glycan array binding signal (z-score),[20],-0.255
same,glycan array binding signal (z-score),[21],-0.231
same,glycan array binding signal (z-score),[22],-0.238
same,glycan array binding signal (z-score),[23],-0.194
same,glycan array binding signal (z-score),[24],-0.25
same,glycan array binding signal (z-score),[25],-0.231
same,glycan array binding signal (z-score),[26],-0.216
same,glycan array binding signal (z-score),[27],-0.269
same,glycan array binding signal (z-score),[28],-0.246
same,glycan array binding signal (z-score),[29],-0.198
same,glycan array binding signal (z-score),[30],0.249
same,glycan array binding signal (z-score),[31],-0.171
same,glycan array binding signal (z-score),[32],-0.254
same,glycan array binding signal (z-score),[33],-0.045
same,glycan array binding signal (z-score),[34],3.99
same,glycan array binding signal (z-score),[35],-0.276
same,glycan array binding signal (z-score),[36],0.858
same,glycan array binding signal (z-score),[37],-0.218
same,glycan array binding signal (z-score),[38],-0.274
same,glycan array binding signal (z-score),[39],-0.272
same,glycan array binding signal (z-score),[40],0.154
same,glycan array binding signal (z-score),[41],-0.29
same,glycan array binding signal (z-score),[42],4.85
same,glycan array binding signal (z-score),[43],-0.319
same,glycan array binding signal (z-score),[44],-0.172
same,glycan array binding signal (z-score),[45],-0.287
